Reference: PubChem BioAssay (NCI)
Several values for one entry are separate records, joined by “and”; a condition that tells them apart may be missing. Identical values can stand only once.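 Each compound was tested at five concentrations against cells in 96-well plates for 48 hours. GI50 is the concentration that inhibits growth by half. The concentration for full growth arrest is given as TGI.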 Square brackets hold non-standard residues; d marks the D form. Peptide text beside a SMILES is read from it. * marks the point of attachment. ξ: configuration not given here. ξW = NC(Cc1c[nH]c2ccccc12)C(=O)O; X26 = O=C(O)[C@H]1CCC[C@H]1N*; ξF = NC(Cc1ccccc1)C(=O)O; Boc = CC(C)(C)OC(=O)*; ξK = NCCCCC(N)C(=O)O; ξT = CC(O)C(N)C(=O)O; OBn = c1ccc(CO*)cc1; tBu = CC(C)(C)*

The molecules below were run on NCI-H322M lung (assay: NCI-60 cell line screen, 48 h).
`Nc1ccc(-c2nc3ccc(Cc4ccc5nc(-c6ccc(N)cc6)oc5c4)cc3o2)cc1` was tested, and the TGI was greater than 100 µM.
`CN(C)C(=O)C(F)(F)C(c1ccc(C(F)(F)F)cc1)C1C(=O)N(C)C(=O)N(C)C1=O` (stereo not given) showed a TGI greater than 100 µM.
`CC(=O)[C@]1(C)[C@H](C)O[C@](C)(CO)[C@H]1O[Si](C)(C)c1ccccc1` showed a TGI greater than 100 µM.
In the case of `O=C(Oc1ccc(OC(Oc2ccccc2)c2ccccc2)cc1)c1ccccc1` (stereo not given), the TGI is reported as greater than 31.6 µM.
Work on `CSc1n[nH]c2n[nH]c(C)c12` yielded a TGI greater than 100 µM.
`c1ccc(C2=NN[C@H](c3cn(-c4ccccc4)nc3-c3ccccc3)C2)cc1` was tested, and the GI50 was 3.81 µM and the TGI was greater than 100 µM.
With `CCCCCCCCCCCCCCC[C@@H](O)C[N+](C)(C)CCO` the TGI was 48.6 µM.
`CN(C)C=Nc1c(Br)cc(Br)c2nonc12` gave a TGI greater than 100 µM.
With `C/C=C1\C[C@@H]2C(OC)Nc3cc(O)c(OC)cc3C(=O)N2C1` (stereo not given in full) the GI50 was 0.0301 µM and the TGI was 0.152 µM and 0.0762 µM.
`Nc1ncnc2c1c(C(=O)NO)cn2C1OC(CO)C(O)C1O` (stereo not given) was tested, and the GI50 was 0.465 µM and the TGI was 73.3 µM.
`Cc1n(-c2ccccc2)c2c([n+]1Cc1ccc([N+](=O)[O-])cc1)C(=O)c1ccccc1C2=O` was tested, and the TGI was 6.87 µM.
Work on `CC(C)C(NC(=O)CNC(=O)C1CCCN1C(=O)C(NC(=O)OC(C)(C)C)C(C)C)C(=O)NCC(=O)OCc1ccccc1` (stereo not given) (Boc-VPGVG-OBn; configuration not given here) yielded a TGI greater than 100 µM.
In the case of `Nc1nc(Sc2ccc([N+](=O)[O-])cn2)c2[nH]cnc2n1`, the TGI is reported as 64.1 µM.
`CC(OC(C)(C)C)C(NC(=O)C(CCCCNC(=O)OC(C)(C)C)NC(=O)C(Cc1c[nH]c2ccccc12)NC(=O)C(N)Cc1ccccc1)C(=O)NC(Cc1ccccc1)C(=O)N[C@@H]1CCC[C@@H]1C(=O)O` (stereo not given in full) (H-[ξF][ξW][ξK](Boc)[ξT](tBu)[ξF]-X26) was tested, and the TGI was greater than 100 µM.
Work on `O=[N+]([O-])c1cc(C(F)(F)F)ccc1S(=O)(=O)N[C@@H]1CCCC[C@H]1NS(=O)(=O)c1ccc(C(F)(F)F)cc1[N+](=O)[O-]` yielded a TGI greater than 100 µM.
`C=CCCC(O)c1ccc(CCCCCCCCCCC)o1` (stereo not given) showed a GI50 of 18.7 µM and a TGI of 36.9 µM.
`O=c1[nH]cnc2c1ncn2C1SC(CO)C(O)C1O` (stereo not given) was tested, and the TGI was greater than 100 µM.
For `CO[C@]12CCC(=O)N1C=Cc1c2[nH]c2ccccc12`, the TGI was greater than 100 µM.
Molecule `CCNC(=O)c1ccc2c(c1)nc(-c1ccc(Cl)cc1)n2-c1cc(C(C)(C)C)[nH]n1` has a GI50 of 15.8 µM and a TGI greater than 100 µM.
`Cc1nn(-c2ccccc2)c(C)c1/C=N/N1CCN(Cc2ccccc2)CC1` was tested, and the GI50 was 8.27 µM and the TGI was 78.3 µM.
Work on `COc1cc(CCNc2nc3cc(N)cc(N)c3nc2-c2ccccc2)cc(OC)c1` yielded a GI50 of 3.75 µM and a TGI of 11.3 µM.
`CCN(CC)c1nc(=O)c(C(=O)C(C)(C)C)c(C(C)(C)C)o1` gave a TGI greater than 100 µM.
For `COC(=O)c1c2c(cc3c1CC1(C3)Cc3ccc4c(c3C1=O)CCC4)CCC2` (stereo not given), the TGI was greater than 100 µM.
`N#C/C(=C\c1ccc([N+](=O)[O-])s1)c1nc2cc(Br)ccc2s1` gave a GI50 greater than 100 µM and a TGI greater than 100 µM.
`O=[N+]([O-])c1ccc(NN=C2c3ccccc3Cc3ccccc32)c([N+](=O)[O-])c1` showed a TGI greater than 100 µM.
In the case of `Cc1cn(C2CC(N=[N+]=[N-])C(C(=O)O)O2)c(=O)[nH]c1=O` (stereo not given), the TGI is reported as greater than 100 µM.
Work on `Cc1[nH]c2ccccc2c1C1=CC(=O)C=CC1=O` yielded a GI50 of 22.8 µM and a TGI of 60.8 µM.
`CCOP(=O)(OCC)/C(C#N)=C/c1cc(O)ccc1O` gave a TGI greater than 100 µM.
With `O=C(O)c1nc2cc(C(F)(F)F)ccc2[nH]c1=O` the TGI was greater than 100 µM.
In the case of `Cc1ccc(S(=O)(=O)c2ccsc2NC(=O)c2ccccc2)cc1`, the TGI is reported as greater than 100 µM.
With `OCCN1CCN(c2nc(Nc3ccc(-c4nc5ccccc5[nH]4)cc3)c3cn[nH]c3n2)CC1` the GI50 was 1.76 µM and the TGI was 3.26 µM.
`CCCN(CCC)c1ccc(/C=N/NC(=O)c2cccnc2)cc1` showed a GI50 of 77 µM and a TGI greater than 100 µM.
`NC(N)=NCCCC(NCc1c2ccccc2[n+]([O-])c2ccccc12)C(=O)O` (stereo not given) was tested, and the TGI was greater than 100 µM.
Molecule `CC(C)NCCCCCNc1cc(O)cc2cccnc12` has a GI50 greater than 56.4 µM and a TGI greater than 100 µM.
Work on `O=C(c1ccncc1)N1CCN(C2=NS(=O)(=O)c3ccccc3N2c2ccccc2)CC1` yielded a GI50 of 63.1 µM and a TGI greater than 100 µM.
`C=CCOCn1ccc(NC(=O)c2ccccc2)nc1=O` showed a TGI greater than 100 µM.
`O=c1c2ccccc2n2n1Cc1ccccc1C2` showed a TGI greater than 100 µM.
`C[CH2][Sn]([Cl])([CH2]C)[CH2]C` gave a GI50 of 2.21 µM and a TGI of 13.9 µM.
`O=C(OC(CNc1c(C(=O)c2ccccc2)c(=O)n(Cc2ccccc2)c(=O)n1Cc1ccccc1)CN1CCCCC1)c1ccccc1` (stereo not given) showed a GI50 of 21.3 µM and a TGI of 55.4 µM.
Work on `O=C1C2C3CCC(C2C(=O)N1CO)C1C2C(=O)N(CO)C(=O)C2C31` (stereo not given) yielded a TGI greater than 100 µM.
`Cc1cccc2c1NC(=O)C2(c1ccc(O)cc1)c1ccc(O)cc1` showed a GI50 of less than 0.0195 µM and a TGI of 29.1 µM.
In the case of `COc1ccc(OC)c(-c2cc(C(=O)O)c3cc4ccccc4cc3n2)c1`, the TGI is reported as greater than 100 µM.
Molecule `N#Cc1c(-c2ccccc2)c(C#N)c(=S)n(C2OCC(O)C(O)C2O)c1N` (stereo not given) has a TGI greater than 100 µM.
With `CCN1C(=O)C(N=[N+]=[N-])(c2ccccc2)C(=O)c2ccccc21` (stereo not given) the TGI was greater than 100 µM.
With `COc1cc([N+](=O)[O-])c(OC)cc1-c1nc2n(c1/C(N)=N/C(=N)N)CCS2` the GI50 was greater than 100 µM and the TGI was greater than 100 µM.
With `COCO[C@@H]1CC2C=Nc3cc(OCc4ccccc4)c(OC)cc3C(=O)N2C1` (stereo not given in full) the GI50 was 1.32 µM and the TGI was 7.28 µM.
In the case of `Cc1ccc(C(O)/C(=N/N)c2nc3ccc([N+](=O)[O-])cc3[nH]c2=O)cc1` (stereo not given), the TGI is reported as greater than 100 µM.
